In PubChem BioAssay AID686979 (National Center for Advancing Translational Sciences (NCATS), 2013):
About 50,000 (12%) of roughly 420,000 compounds were called active. Inconclusive means that the source gave no clear call. Such entries were picked first, then a sample of the others. Calls come from the whole dose curve; as a rule, active = well fitted inhibition curve with a large enough effect; inconclusive = small, poorly fitted or top-dose-only effect; inactive = flat fitted curve, though single readings scatter. Potencies of inconclusive entries are left out as doubtful fits.

Experiment: qHTS for Inhibitors of human tyrosyl-DNA phosphodiesterase 1 (TDP1): qHTS in cells in presence of CPT; note: nearly all actives have a fitted effect of over 55% in size
Details: chicken DT40 Tdp1-/-;hTDP1 cells + 20 nM CPT, ATP luminescence, 48 h; activity change, negative = growth inhibition: at 46.2 µM (top of the series) unless noted
Summary of the method: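 Chicken DT40 Tdp1-/- cells complemented with human TDP1, 400 cells/well, exposed to compounds plus 20 nM camptothecin for at least 48 h at 37 C; viability read as ATP content by CellTiter-Glo luminescence.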
% is set by controls: 0 for no effect and ±100 for the full control effect; potency is the fitted concentration of half-maximal effect; tags give direction and shape of the fitted curve.

SMILES	Potency	activity change, negative = growth inhibition
CCCn1c(C2CCCN2c2nc(-c3ccc(C)cc3)cs2)nc2ccccc21 (stereo unspecified)	inconclusive [inhibitor, single point]	–
COc1ccccc1C(=O)NC(C(=O)NCCc1nc2ccccc2[nH]1)=C(C)C	–	inactive: -9.74%
COc1ccc(OC)c(-c2nn(-c3ccccc3)cc2C(=O)NCC(c2cccs2)N2CCOCC2)c1 (stereo unspecified)	inconclusive [inhibitor, single point]	–
CC(=O)c1ccc(N2CCN(C(=O)c3cccs3)C(C)C2)c(F)c1 (stereo unspecified)	inconclusive [inhibitor, single point]	–
O=C(CN1C(=O)NC2NC(=O)NC21)N/N=C/c1ccccc1O (stereo unspecified)	–	inactive: 9.7%
COc1cc(-c2noc(C)c2C(=O)NCc2ccc3c(c2)OCO3)cc(OC)c1OC	inconclusive [inhibitor, single point]	–
Cc1ccc(S(=O)(=O)N/N=C/c2ccc(O)c(O)c2)cc1[N+](=O)[O-]	inconclusive [inhibitor, single point]	–
CC(=O)CC/C=C(\C)CC/C=C(\C)CC/C=C(\C)CCC=C(C)C	–	inactive: -13%
O=C(Nc1ccncc1)Nc1ccccc1Cl	inconclusive [inhibitor, single point]	–
O=C(COC(=O)c1cccc(OC(F)F)c1)Nc1cccc(S(=O)(=O)N2CCCC2)c1	–	inactive: -19.2%
CN(CCCC(=O)Nc1nccs1)S(=O)(=O)c1ccc(Cl)cc1	inconclusive [inhibitor, single point]	–
FC(F)(F)c1cccc(N2CCN(C(=S)NC3CCCCC3)CC2)c1	inconclusive [inhibitor, single point]	–
Fc1ccccc1N1CCN(C2CCCN(Cc3ccccc3C(F)(F)F)C2)CC1 (stereo unspecified)	inconclusive [inhibitor, single point]	–
CCN(C(=O)COC(=O)/C=C/c1cccc([N+](=O)[O-])c1)c1ccccc1	–	inactive: -17.6%
CC(=O)c1ccc(Nc2nc3ccccc3nc2NS(=O)(=O)c2cccs2)cc1	active: 14.6 µM	–
CCc1cccc(C)c1NC(=O)c1cnn(-c2ccc(OC)cc2)c1C1CCN(C(=O)OC(C)(C)C)CC1	active: 18.4 µM	–
O=C(Nc1cc([N+](=O)[O-])ccc1O)c1cccc(NC(=O)c2ccco2)c1	–	inactive: -2.17%
Cc1nn(C2CCS(=O)(=O)C2)c(C)c1C=O (stereo unspecified)	inconclusive [inhibitor, single point]	–
Cc1ccc(Nc2nnc(SCC(=O)Nc3ncc(C(F)(F)F)cc3Cl)s2)cc1	–	inactive: -9.73%
CCOC1=C2[C@@H](CN(S(=O)(=O)c3ccc(C)cc3)[C@H]2c2cccc3ccccc23)[C@H]2C(=O)N(C3CCCCC3)C(=O)[C@H]2C1	active: 13 µM	–
CCOc1ccc(CNC(=S)N/N=C\c2ccc([N+](=O)[O-])cc2)cc1	active: 16.4 µM	–
CCOCCc1nn2c(=O)cc(COC(=O)c3ccc(NC(=O)C(C)(C)C)cc3)nc2s1	active: 16.4 µM	–
O=C(c1ccccc1Oc1ccccc1)N1CCN(c2ccccc2F)CC1	active: 18.4 µM	–
COCCNC(=O)c1cc(-c2cccs2)on1	inconclusive [inhibitor, partial curve]	–

SMILES	Potency	activity change, negative = growth inhibition
CCN(CC)C(=S)NC(=O)c1ccc(OC)c(Br)c1	inconclusive [inhibitor, single point]	–
O=C(COc1ccccc1[N+](=O)[O-])Nc1cccnc1	–	inactive: 0.987%
Cc1ccc2c(C)c(C(=O)N3CCN(Cc4ccc5c(c4)OCO5)CC3)oc2c1C	inconclusive [inhibitor, single point]	–
CS(=O)(=O)Nc1cccc(NC(=O)c2cccc3c(-c4ccc(F)c(F)c4)coc23)c1	active: 14.6 µM	–
COCC(C)NC(=O)CSc1nc(-c2ccccc2)c(-c2ccccc2)o1 (stereo unspecified)	active: 11.6 µM	–
CCOC(=O)c1ccc(NC(=O)N(CC)CC)cc1	inconclusive [inhibitor, single point]	–
COc1ccc(NS(=O)(=O)c2ccc(C(=O)N3CCN(c4ccc(F)cc4)CC3)cc2)cc1	active: 10.3 µM	–
O=C(Nc1ccc(F)c(Cl)c1)c1ccccc1NC(=O)C1CCCCC1C(=O)O (stereo unspecified)	inconclusive [inhibitor, single point]	–
CCOc1ccc(N2C(=O)c3ccc(C(=O)OCc4c(C)noc4C)cc3C2=O)cc1	–	inactive: -25%
O=C(c1ccccc1)C1CCN(C(=O)c2c(F)cccc2F)CC1	–	inactive: -7.36%
Cc1cc2oc(C(=O)N(Cc3ccco3)Cc3ccccc3Cl)c(C)c2cc1C	inconclusive [inhibitor, single point]	–
CC(C(=O)NCCC1=CCCCC1)c1ccc([N+](=O)[O-])cc1 (stereo unspecified)	inconclusive [inhibitor, single point]	–
CC(C)C[C@H]1CNC(=S)N1CC1CCN(CCCC2CCCC2)CC1	inconclusive [inhibitor, single point]	–
Cc1ccc(OCC(=O)N(C)CC(=O)NCc2ccco2)c(Br)c1	–	inactive: 3.98%
CCCCOc1ccc(CSCCN=C(N)N)cc1	inconclusive [inhibitor, full curve]	–
O=C1c2ccccc2C(=O)c2c(NCc3cccnc3)cccc21	inconclusive [inhibitor, partial curve]	–
COc1ccc(CCNC(=O)c2sc3cc(C)ccc3c2Cl)cc1	–	inconclusive: -31.7% [inhibitor]
Cc1ccc(/C=N/NC(=O)Cc2c(F)cccc2Cl)s1	–	inactive: -1.3%
CCOC(=O)c1ccccc1NC(=O)c1cnc(N2CCOCC2)c2ccccc12	inconclusive [inhibitor, single point]	–
Cc1cccc(NC(=O)[C@H](Cc2c[nH]c3ccccc23)NC(=O)[C@@H]2Cc3ccccc3CN2)c1	inconclusive [inhibitor, single point]	–
CC(C(=O)NCc1ccccc1)n1c(-c2ccc3c(c2)CCO3)nc2ccccc21 (stereo unspecified)	inconclusive [inhibitor, single point]	–
CCOC(=O)c1ccccc1NC(=O)CN(c1cccc(OC)c1)S(C)(=O)=O	inconclusive [inhibitor, partial curve, poor fit]	–
COc1ccc(C=NNC(=S)NC23CC4CC(CC(C4)C2)C3)cc1OC	inconclusive [inhibitor, single point]	–
CCOC(=O)C1=CCN(S(=O)(=O)c2ccccc2C)C1c1cccc(Cl)c1 (stereo unspecified)	inconclusive [inhibitor, single point]	–

SMILES	Potency	activity change, negative = growth inhibition
Cc1ccc(SCC(=O)Nc2ccc3oc(-c4ccccc4F)nc3c2)cc1	inconclusive [inhibitor, partial curve]	–
COc1ccc(S(=O)(=O)Nc2ccccc2C)cc1	inconclusive [inhibitor, single point]	–
COc1ccccc1CNC(=O)C(CC(C)C)NC(=O)C1CCC(C)CC1 (stereo unspecified)	inconclusive [inhibitor, partial curve]	–
CCCc1ccc(S(=O)(=O)N2CCN(Cc3ccco3)CC2)cc1	inconclusive [inhibitor, single point]	–
O=C1/C(=C\c2cc(Br)cc(Br)c2O)SC(=S)N1Cc1ccccc1	active: 13 µM	–
O=S(=O)(NCC1CCCO1)c1ccc(-c2ccc(S(=O)(=O)NCC3CCCO3)cc2)cc1 (stereo unspecified)	active: 0.651 µM	–
CCN(CC)c1nn2c(=O)c(C(=O)NCc3ccc(N(C)C)cc3)cnc2s1	–	inactive: -13.5%
COc1ccc(CNC(=O)Cn2c(-c3ccccc3)cc(C(C)=O)c2C)cc1OC	active: 10.3 µM	–
O=C(CNC(=O)Cc1ccccc1)N=Nc1c(O)[nH]c2ccc(Br)cc12	inconclusive [inhibitor, single point]	–
COC(=O)c1cn(NC(=O)c2cc([N+](=O)[O-])ccc2F)c(=O)c2ccccc12	active: 3.26 µM	–
Clc1ccc(C=Cc2ccccn2)c(Cl)c1	inconclusive [inhibitor, single point]	–
CCC(CC)CN1CCN=C1Nc1ccccc1	–	inactive: -1.88%
COc1ccc(OC)c(NC(=O)c2cc3c(cc2Cl)N2CCCCCC2=NS3(=O)=O)c1	inconclusive [inhibitor, single point]	–
COc1ccc(OC)c2c1C(=O)c1ccccc1C2=O	–	inactive: -9.05%
COc1ccc(N2CC(NC(=O)/C=C\c3ccccc3)CC2=O)cc1OC (stereo unspecified)	–	inactive: 1.8%
CC12CC(c3ccccc3O1)N(C(=O)c1ccco1)C(=S)N2c1ccc(F)cc1 (stereo unspecified)	inconclusive [inhibitor, single point]	–
CC(=O)Nc1nc2ccc(S(=O)(=O)N3CCCC3)cc2s1	inconclusive [inhibitor, single point]	–
CC(=O)Nc1ccc(Sc2ncccc2C(=O)Nc2ccc(F)cc2)cn1	active: 9.2 µM	–
COc1ccc(N2CCN(C(=O)c3ccc(CS(=O)c4cccc(Cl)c4)o3)CC2)cc1 (stereo unspecified)	active: 16.4 µM	–
COc1cccc(-c2ccc3ncnc(N4CCNCC4)c3c2)c1	inconclusive [inhibitor, single point]	–
CN(Cc1ccccc1)C(=O)c1ccc(NC(=O)Cc2ccc(NC(=O)C3CCCN(C(=O)C4CCCCC4)C3)cc2)cc1 (stereo unspecified)	inconclusive [inhibitor, partial curve]	–
Cc1cc(C)c2c(n1)SCC(=O)N2CC(=O)Nc1cccc(Cl)c1	inconclusive [inhibitor, partial curve]	–
CCN(CC)CCNC(=O)c1cc(S(=O)(=O)N2CCc3ccccc32)cn1C	inconclusive [inhibitor, single point]	–
